PubChem BioAssay AID463173 (ICCB-Longwood Screening Facility, Harvard Medical School, 2010)
The whole screen tested about 52,000 compounds, of which about 1,700 (3.3%) were called active. No stated cut-off is given here; in the data, active means survival mostly below about 52% (no sharp cut-off); inactive means mostly above about 56%. The list shows a part of the results.

Test system: Wild type
Test: growth inhibition of S. aureus wild type versus tarO mutant, primary screen, teichoic acid synthesis inhibitors, RN4220, OD600 (AID 463173)
Details: S. aureus RN4220 wild type/DeltatarO growth, OD600, 18 h, hits give low values, screened at 18.75 µg/mL (by protocol)

| Structure (SMILES) | survival |
| --- | --- |
| O=C(Cc1ccccc1)N(Cc1cccnc1)c1nc2c(F)cc(F)cc2s1 | inactive: 65% |
| CCc1ccccc1NC(=O)CN(Cc1ccccc1)S(=O)(=O)c1ccc(Br)cc1 | inactive: 66% |
| O=C(Nc1cc(Cl)cc(Cl)c1)c1ccc(F)c(S(=O)(=O)N2CCc3ccccc32)c1 | inactive: 83% |
| Cc1cccc(OC(=O)CSc2nnc(CNC(=O)c3ccccc3)o2)c1C | inactive: 87% |
| O=C(Nc1ccc(F)cc1)c1oc2ccccc2c1NC(=O)C12CC3CC(CC(C3)C1)C2 | inactive: 80% |
| CCOC(=O)c1c(C)oc2ccc(N(C(=O)Oc3ccccc3)S(=O)(=O)c3ccc(CC)cc3)cc12 | inactive: 74% |
| CC(C)c1ccc(OCC(=O)NC(Cc2c[nH]c3ccccc23)C(=O)O)cc1 (centres undefined) | inactive: 63% |
| CCOC(=O)c1c(C)[nH]c(C)c1S(=O)(=O)N1CCC(C(=O)N2CCN(c3ccccc3F)CC2)CC1 | inactive: 68% |
| COc1cccc(NC(=O)CSC2=Nc3ccccc3C3=NC(CC(=O)NC4CCCCC4)C(=O)N23)c1 (centres undefined) | inactive: 80% |
| CCn1cnc2sc3c(c2c1=O)CCCC3 | inactive: 107% |
| CCc1nnc(SCc2cc(C)ccc2C)c2cc3sc(C)cc3n12 | inactive: 78% |
| COc1ccc(NC(=O)C(C)n2nc(-c3ccc(C)c(C)c3)ccc2=O)cc1OC (centres undefined) | inactive: 99% |
| COc1ccc(C2CC(=O)c3cc(-c4nc(-c5ccc(Cl)cc5)c(C)s4)c(=O)[nH]c3C2)cc1 (centres undefined) | inactive: 71% |
| Cc1ccc2c(c1)-c1cc(C)nn1C(c1cc(Br)ccc1O)N2 (centres undefined) | inactive: 131% |
| COc1cc(OC)c(OC)cc1/C=C/c1nc2cc3ccccc3cc2c(=O)n1-c1ccc(F)cc1F | inactive: 78% |
| Cc1ccc(-n2c(SCc3cccc(F)c3)nc3[nH]ncc3c2=O)cc1C | inactive: 89% |
| COC(=O)c1ccc2c(=O)n(CCCCCC(=O)NCc3ccc(Cl)cc3)c(=O)[nH]c2c1 | inactive: 91% |
| CCOC(=O)c1nn(-c2ccccc2)c(=O)c(C#N)c1C | inactive: 97% |
| Cc1ccc2ncc(C(=O)Nc3ccc(F)cc3F)c(=O)n2c1 | inactive: 89% |
| O=S(=O)(Nc1nc2n(n1)C(c1ccc(F)cc1)C=C(c1ccccc1)N2)c1ccccc1 (centres undefined) | inactive: 74% |
| Cc1cc(NC(=O)CCS(=O)(=O)c2cc3c4c(c2)CCN4C(=O)CC3)ccc1Br | inactive: 128% |
| CC(C)(C)c1ccc(C(=O)NCC(c2cccs2)S(=O)(=O)c2ccccc2)cc1 (centres undefined) | inactive: 119% |
| CC(=O)c1ccc(N2CCN(c3ccc(NC(=O)c4ccc(F)cc4)cc3C(=O)O)CC2)cc1 | active: 14% |

| Structure (SMILES) | survival |
| --- | --- |
| CCc1ccc(CNC(=O)c2ccc(NC(=O)N3CC(C)Sc4ccccc43)cc2)cc1 (centres undefined) | inactive: 91% |
| Cc1cc(C)c2c(=O)cc(C(=O)Nc3ccccc3C(F)(F)F)oc2c1 | inactive: 91% |
| CCOC(=O)c1c(-c2ccc(Br)cc2)csc1NC(=O)c1ccc(F)cc1 | inactive: 72% |
| CN(Cc1ccccc1)S(=O)(=O)c1ccc(NC(=O)c2ccco2)cc1 | inactive: 101% |
| COC(=O)c1ccccc1NC(=O)CSc1nc2ccccc2nc1Cc1ccccc1OC | inactive: 113% |
| CC(C)OCCCNC(=O)c1ccc2c(c1)NC(=O)c1ccccc1S2 | inactive: 87% |
| O=C(Nc1cc(-c2nc3ccccc3o2)ccc1Cl)c1ccc(N2CCCCC2)c([N+](=O)[O-])c1 | inactive: 78% |
| CN(C(=O)c1cc2nc(-c3ccco3)cc(C(F)(F)F)n2n1)c1ccc(OC(F)(F)Cl)cc1 | inactive: 132% |
| CCn1c(=O)sc2cc(NS(=O)(=O)c3ccc(F)c(C)c3)ccc21 | inactive: 67% |
| Cc1ccc(CSc2cn(CC(=O)N3CCCC3)c3ccccc23)cc1 | inactive: 84% |
| O=C(CCS(=O)(=O)c1cc(Br)cc2c1N(C(=O)C1CC1)CC2)NCc1ccc(Cl)cc1 | inactive: 87% |
| CC(=O)Nc1cc(OC(C)=O)c2nonc2c1OC(C)=O | inactive: 74% |
| Cc1ccc(NC(=O)Cn2cc(S(=O)(=O)c3ccc(C)cc3)c(=O)c3cc4c(cc32)OCO4)cc1 | inactive: 79% |
| Cc1ccc(-c2nc(SCCOc3ccccc3C)n3[nH]c(=O)cc3n2)cc1 | inactive: 121% |
| COc1ccc(C2c3c(n(C)c4ccccc34)C(=O)N2CC(=O)Nc2ccc(C)c(Cl)c2)cc1 (centres undefined) | inactive: 117% |
| O=C1Nc2ccccc2C1=Nc1ccc(Br)cc1 | inactive: 103% |
| CCc1ccccc1N(CC)C(=O)c1c(C)oc2ncnc(N3CCOCC3)c12 | inactive: 70% |
| CCOC(=O)C1CCN(c2nc3c(S(=O)(=O)c4ccccc4)nnn3c3ccsc23)CC1 | inactive: 80% |
| CC1=C(c2ccc(C)c(C)c2)S(=O)(=O)N=C1N1CCC(C(=O)N2CCC(C(N)=O)CC2)CC1 | active: -4% |
| O=c1c2oc3ccccc3c2n(Cc2ccc(Cl)cc2)c(=O)n1Cc1ccco1 | inactive: 84% |
| O=C1COc2cc(S(=O)(=O)NCc3ccco3)c(Cl)cc2N1 | inactive: 73% |
| COc1ccc(NC(=O)Nc2nnc(C)s2)cc1 | inactive: 63% |
| Cc1ccccc1C(=O)Nc1ccc(OCc2cc(=O)n3cccc(C)c3n2)cc1 | inactive: 72% |

| Structure (SMILES) | survival |
| --- | --- |
| CCN(C(=O)C1CCC(CNS(=O)(=O)c2cccc3nsnc23)CC1)c1ccc(C)c(C)c1 (centres undefined) | inactive: 39% |
| Cc1cccc(CN2CCC(CNC(=O)c3c(C)oc4ncnc(N5CCCCC5)c34)CC2)c1 | inactive: 98% |
| O=C(c1cccs1)N1CCCc2ccccc21 | inactive: 124% |
| Nc1nnc(SCc2ccccc2)s1 | inactive: 87% |
| Cc1cccc(C(=O)Nc2sc3c(c2C(=O)N2CCCCC2)CCC(C)C3)c1 (centres undefined) | active: -1% |
| CC(=O)N1CCOc2cc(S(=O)(=O)NC(C)c3ccccc3)c(Cl)cc21 (centres undefined) | inactive: 90% |
| Cc1oc2ccc(O)c(CN(C)Cc3ccccc3)c2c1C(=O)Nc1ccccc1 | inactive: 105% |
| O=C(CCc1cn(Cc2ccc(F)cc2)c2ccccc12)NCCc1ccc(Cl)cc1 | inactive: 99% |
| CCN(CC)CCNC(=O)c1c(C)oc2ncn(C)c(=O)c12 | inactive: 81% |
| Cn1cnc(S(=O)(=O)N2CCC(C(=O)NCc3ccccc3Cl)CC2)c1 | inactive: 128% |
| CCN(c1ccccc1)c1nnc(NC(=O)Nc2ccc(Br)cc2)s1 | inactive: 85% |
| Cc1ccc(NC(=O)Nc2nnc(N3CCCC3)s2)cc1 | inactive: 85% |
| CCOC(=O)c1c(NC(=O)/C=C/c2ccc(C(C)C)cc2)sc2c1CCC2 | inactive: 60% |
| Cc1ccc(C(=O)CC2(O)C(=O)N(Cc3ccccc3F)c3ccccc32)cc1 (centres undefined) | inactive: 71% |
| COc1cccc(NC(=O)CSc2nc3ccc(NC(=O)c4cccs4)cc3s2)c1 | inactive: 70% |
| CNS(=O)(=O)c1cn(CC(=O)N2CCN(c3ccccc3F)CC2)cc1S(=O)(=O)NC | inactive: 73% |
| CCc1ccc(OC(C)c2nc(-c3ccc(-n4cccc4)cc3)no2)cc1 (centres undefined) | active: -4% |
| CC(C)C(=O)Nc1ccc(N2CCN(C(=O)c3ccccc3)CC2)cc1 | inactive: 96% |
| CCOC(=O)C1NC(=O)CC1c1ccccc1 (centres undefined) | inactive: 99% |
| CCOc1ccc(CCNc2ncnc3onc(-c4ccc(Cl)cc4)c23)cc1OCC | inactive: 85% |
| COCc1nc2cccnc2n1C1CCN(S(=O)(=O)N(C)C)CC1 | inactive: 66% |
| O=S(=O)(NCc1csc(-c2ccccc2)n1)c1cccc(F)c1 | inactive: 73% |
| COc1ccc(NC(=O)C(c2ccc(C)cc2)N(C)C(=O)/C=C\c2ccc3c(c2)OCO3)cc1 (centres undefined) | inactive: 78% |

| Structure (SMILES) | survival |
| --- | --- |
| CC(C)CNC(=O)c1cc2sccc2n1Cc1ccccc1 | inactive: 133% |
| COc1cccc(C2=C(C(C)=O)Sc3nncn3N2C(C)=O)c1 | inactive: 66% |
| CCOC(=O)c1ccc(NC(=O)CCc2c(C)nc3c(c(C)nn3-c3ccccc3)c2C)cc1 | inactive: 87% |
| Cc1ccc(CN(Cc2ccco2)C(=O)COc2ccccc2C)cc1 | inactive: 83% |
| O=C(Cn1c(SCc2cccc(F)c2)nc2cccnc21)Nc1ccc(F)c(Cl)c1 | inactive: 68% |
| O=C(NCCO)c1ccc2c(c1)OCO2 | inactive: 100% |
| CC(=O)c1ccc(NC(=O)CCc2c(C)nc3c(c(C)nn3-c3ccc(C)cc3)c2C)cc1 | inactive: 82% |
| COc1ccccc1NC(c1ccc(Cl)cc1)c1nnc(-c2cccc(F)c2)o1 (centres undefined) | inactive: 62% |
| CCOc1ccc(-c2nonc2NC(=O)c2oc3ccc(F)cc3c2C)cc1 | inactive: 125% |
| Cc1nn2c(=O)cc(CN(C)c3ccccc3)nc2s1 | inactive: 131% |
| CCOC(=O)c1ccccc1NC(=O)CSc1ncc(CO)n1Cc1ccc(C)cc1 | inactive: 90% |
| CC(C)(C)c1ccc(Cn2c(Cc3ccccc3)nc3ccccc32)cc1 | active: -1% |
| O=C(COc1ccccc1Cl)Nc1cc(-c2ccccc2F)nn1-c1ccccc1 | inactive: 90% |
| Cc1cc(C)cc(NC(=O)CN(c2cc(C(F)(F)F)ccc2Cl)S(=O)(=O)c2ccccc2)c1 | inactive: 79% |
| O=C(CCS(=O)(=O)c1nc(-c2cccs2)cc(C(F)(F)F)n1)Nc1ccc(OC(F)(F)F)cc1 | inactive: 73% |
| COc1ccc(C2c3c(oc4ccccc4c3=O)C(=O)N2Cc2ccc3c(c2)OCO3)cc1 (centres undefined) | inactive: 80% |
| CN(C1CCCCC1)S(=O)(=O)c1ccc(S(=O)(=O)N(Cc2ccccn2)Cc2ccco2)cc1 | inactive: 106% |
| COC(=O)c1ccccc1NC(=O)C1=CC(c2ccc(C)cc2)=NS(=O)(=O)N1C | inactive: 77% |
| O=C1CCCN1CN1CCN(CN2CCCC2=O)CC1 | inactive: 111% |
| COc1ccc(OC)c(NC(=O)c2cc3c(n(-c4ccc(Cl)cc4)c2=O)CC(C)(C)CC3=O)c1 | inactive: 70% |
